{
  "source": "the supplement of paper PMC12230231",
  "note": "± gives the standard deviation of the averaged measurements. Restriction of a single-cycle SIVsab GFP reporter by TRIM5α v1-loop variants in CRFK cells. Human variants: read share among cells still uninfected after two challenges over input, higher = gained restriction. Rhesus variants: share among infected cells over input, higher = lost restriction. Reporter dose not given per row. No active / inactive call per row; the paper calls a change when both replicates lie above its controls (mean + 2 SD of stop or wild-type variants, or the top frameshift score). Residues outside the varied loop are taken from Swiss-Prot. The paper reads the human single-substitution scores as noise; they and the rhesus combinations repeat poorly (rank correlation 0.3 to 0.4), indel scores repeat only for the top variants, rhesus substitutions well (0.9).",
  "data": [
    {"system": "SIVsab (simian immunodeficiency virus of sabaeus monkeys), single-cycle GFP reporter, in CRFK cells", "test": "enrichment among uninfected cells over input (fold); higher = stronger restriction", "settings": "library: human / rhesus combinations", "protocol": "(§1)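 Pools of CRFK cells expressing variants of the TRIM5α v1 loop were challenged with the single-cycle reporter, sorted by GFP and sequenced; mean of two replicates.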", "values": [
      {"sequence": "MASGILVNVKEEVTCPICLELLTQPLSLDCGHSFCQACLTANHKKSMLDKGESSCPVCRISYQPENIRPNRHVANIVEKLREVKLSPEGQKVDHCARHGEKLLLFCQEDGKVICWLCERSQEHRGHHTFLTEEVAREYQVKLQAALEMLRQKQQEAEELEADIREEKASWKTQIQYDKTNVLADFEQLRDILDWEESNELQNLEKEEEDILKSLTNSETEMVQQTQSLRELISDLEHRLQGSVMELLQGVDGVIKRTENVTLKKPETFPKNQRRVFRAPDLKGMLEVFRELTDVRRYWVDVTVAPNNISCAVISEDKRQVSSPKPQIIYGAPGTRYTFQTFVNFNYCTGILGSQSITSGKHYWEVDVSKKTAWILGVCAGFQPDAMCNIEKNENYQPKYGYWVIGLEEGVKCSAFQDSSFHTPSVPFIVPLSVIICPDRVGVFLDYEACTVSFFNITNHGFLIYKFSHCSFSQPVFPYLNPRKCGVPMTLCSPSS [human TRIM5α, 330-340 = GAPGTRYTFQTFV]", "enrichment": "0.0795 ± 0.06"},
      {"sequence": "MASGILVNVKEEVTCPICLELLTQPLSLDCGHSFCQACLTANHKKSMLDKGESSCPVCRISYQPENIRPNRHVANIVEKLREVKLSPEGQKVDHCARHGEKLLLFCQEDGKVICWLCERSQEHRGHHTFLTEEVAREYQVKLQAALEMLRQKQQEAEELEADIREEKASWKTQIQYDKTNVLADFEQLRDILDWEESNELQNLEKEEEDILKSLTNSETEMVQQTQSLRELISDLEHRLQGSVMELLQGVDGVIKRTENVTLKKPETFPKNQRRVFRAPDLKGMLEVFRELTDVRRYWVDVTVAPNNISCAVISEDKRQVSSPKPQIIYGARGTRFQSLVNFNYCTGILGSQSITSGKHYWEVDVSKKTAWILGVCAGFQPDAMCNIEKNENYQPKYGYWVIGLEEGVKCSAFQDSSFHTPSVPFIVPLSVIICPDRVGVFLDYEACTVSFFNITNHGFLIYKFSHCSFSQPVFPYLNPRKCGVPMTLCSPSS [human TRIM5α, 330-340 = GARGTRFQSLV]", "enrichment": "0.00124 ± 0.00028"},
      {"sequence": "MASGILVNVKEEVTCPICLELLTQPLSLDCGHSFCQACLTANHKKSMLDKGESSCPVCRISYQPENIRPNRHVANIVEKLREVKLSPEGQKVDHCARHGEKLLLFCQEDGKVICWLCERSQEHRGHHTFLTEEVAREYQVKLQAALEMLRQKQQEAEELEADIREEKASWKTQIQYDKTNVLADFEQLRDILDWEESNELQNLEKEEEDILKSLTNSETEMVQQTQSLRELISDLEHRLQGSVMELLQGVDGVIKRTENVTLKKPETFPKNQRRVFRAPDLKGMLEVFRELTDVRRYWVDVTVAPNNISCAVISEDKRQVSSPKPQIIYGARGTLYTFPSFVNFNYCTGILGSQSITSGKHYWEVDVSKKTAWILGVCAGFQPDAMCNIEKNENYQPKYGYWVIGLEEGVKCSAFQDSSFHTPSVPFIVPLSVIICPDRVGVFLDYEACTVSFFNITNHGFLIYKFSHCSFSQPVFPYLNPRKCGVPMTLCSPSS [human TRIM5α, 330-340 = GARGTLYTFPSFV]", "enrichment": "0.201 ± 0.083"},
      {"sequence": "MASGILVNVKEEVTCPICLELLTQPLSLDCGHSFCQACLTANHKKSMLDKGESSCPVCRISYQPENIRPNRHVANIVEKLREVKLSPEGQKVDHCARHGEKLLLFCQEDGKVICWLCERSQEHRGHHTFLTEEVAREYQVKLQAALEMLRQKQQEAEELEADIREEKASWKTQIQYDKTNVLADFEQLRDILDWEESNELQNLEKEEEDILKSLTNSETEMVQQTQSLRELISDLEHRLQGSVMELLQGVDGVIKRTENVTLKKPETFPKNQRRVFRAPDLKGMLEVFRELTDVRRYWVDVTVAPNNISCAVISEDKRQVSSPKPQIIYQAPGTRFTFQTLVNFNYCTGILGSQSITSGKHYWEVDVSKKTAWILGVCAGFQPDAMCNIEKNENYQPKYGYWVIGLEEGVKCSAFQDSSFHTPSVPFIVPLSVIICPDRVGVFLDYEACTVSFFNITNHGFLIYKFSHCSFSQPVFPYLNPRKCGVPMTLCSPSS [human TRIM5α, 330-340 = QAPGTRFTFQTLV]", "enrichment": "0.106 ± 0.12"},
      {"sequence": "MASGILVNVKEEVTCPICLELLTQPLSLDCGHSFCQACLTANHKKSMLDKGESSCPVCRISYQPENIRPNRHVANIVEKLREVKLSPEGQKVDHCARHGEKLLLFCQEDGKVICWLCERSQEHRGHHTFLTEEVAREYQVKLQAALEMLRQKQQEAEELEADIREEKASWKTQIQYDKTNVLADFEQLRDILDWEESNELQNLEKEEEDILKSLTNSETEMVQQTQSLRELISDLEHRLQGSVMELLQGVDGVIKRTENVTLKKPETFPKNQRRVFRAPDLKGMLEVFRELTDVRRYWVDVTVAPNNISCAVISEDKRQVSSPKPQIIYGARGTRYTFPTLVNFNYCTGILGSQSITSGKHYWEVDVSKKTAWILGVCAGFQPDAMCNIEKNENYQPKYGYWVIGLEEGVKCSAFQDSSFHTPSVPFIVPLSVIICPDRVGVFLDYEACTVSFFNITNHGFLIYKFSHCSFSQPVFPYLNPRKCGVPMTLCSPSS [human TRIM5α, 330-340 = GARGTRYTFPTLV]", "enrichment": "0.0956 ± 0.014"},
      {"sequence": "MASGILVNVKEEVTCPICLELLTQPLSLDCGHSFCQACLTANHKKSMLDKGESSCPVCRISYQPENIRPNRHVANIVEKLREVKLSPEGQKVDHCARHGEKLLLFCQEDGKVICWLCERSQEHRGHHTFLTEEVAREYQVKLQAALEMLRQKQQEAEELEADIREEKASWKTQIQYDKTNVLADFEQLRDILDWEESNELQNLEKEEEDILKSLTNSETEMVQQTQSLRELISDLEHRLQGSVMELLQGVDGVIKRTENVTLKKPETFPKNQRRVFRAPDLKGMLEVFRELTDVRRYWVDVTVAPNNISCAVISEDKRQVSSPKPQIIYGARGTLFTFQSLTNFNYCTGILGSQSITSGKHYWEVDVSKKTAWILGVCAGFQPDAMCNIEKNENYQPKYGYWVIGLEEGVKCSAFQDSSFHTPSVPFIVPLSVIICPDRVGVFLDYEACTVSFFNITNHGFLIYKFSHCSFSQPVFPYLNPRKCGVPMTLCSPSS [human TRIM5α, 330-340 = GARGTLFTFQSLT]", "enrichment": "0.225 ± 0.079"}
    ]},
    {"system": "SIVsab (simian immunodeficiency virus of sabaeus monkeys), single-cycle GFP reporter, in CRFK cells", "test": "enrichment among uninfected cells over input (fold); higher = stronger restriction", "settings": "library: insertions and deletions", "protocol": "as §1", "values": [
      {"sequence": "MASGILVNVKEEVTCPICLELLTQPLSLDCGHSFCQACLTANHKKSMLDKGESSCPVCRISYQPENIRPNRHVANIVEKLREVKLSPEGQKVDHCARHGEKLLLFCQEDGKVICWLCERSQEHRGHHTFLTEEVAREYQVKLQAALEMLRQKQQEAEELEADIREEKASWKTQIQYDKTNVLADFEQLRDILDWEESNELQNLEKEEEDILKSLTNSETEMVQQTQSLRELISDLEHRLQGSVMELLQGVDGVIKRTENVTLKKPETFPKNQRRVFRAPDLKGMLEVFRELTDVRRYWVDVTVAPNNISCAVISEDKRQVSSPKPQIIYGARGTRRGTRYQTFVNFNYCTGILGSQSITSGKHYWEVDVSKKTAWILGVCAGFQPDAMCNIEKNENYQPKYGYWVIGLEEGVKCSAFQDSSFHTPSVPFIVPLSVIICPDRVGVFLDYEACTVSFFNITNHGFLIYKFSHCSFSQPVFPYLNPRKCGVPMTLCSPSS [human TRIM5α, 4-codon duplication at 332]", "enrichment": "6.06 ± 1.1"},
      {"sequence": "MASGILVNVKEEVTCPICLELLTQPLSLDCGHSFCQACLTANHKKSMLDKGESSCPVCRISYQPENIRPNRHVANIVEKLREVKLSPEGQKVDHCARHGEKLLLFCQEDGKVICWLCERSQEHRGHHTFLTEEVAREYQVKLQAALEMLRQKQQEAEELEADIREEKASWKTQIQYDKTNVLADFEQLRDILDWEESNELQNLEKEEEDILKSLTNSETEMVQQTQSLRELISDLEHRLQGSVMELLQGVDGVIKRTENVTLKKPETFPKNQRRVFRAPDLKGMLEVFRELTDVRRYWVDVTVAPNNISCAVISEDKRQVSSPKPQIIQIIYGARGTRYQTFVNFNYCTGILGSQSITSGKHYWEVDVSKKTAWILGVCAGFQPDAMCNIEKNENYQPKYGYWVIGLEEGVKCSAFQDSSFHTPSVPFIVPLSVIICPDRVGVFLDYEACTVSFFNITNHGFLIYKFSHCSFSQPVFPYLNPRKCGVPMTLCSPSS [human TRIM5α, 3-codon duplication at 326]", "enrichment": "0.3609 ± 0.0029"},
      {"sequence": "MASGILVNVKEEVTCPICLELLTQPLSLDCGHSFCQACLTANHKKSMLDKGESSCPVCRISYQPENIRPNRHVANIVEKLREVKLSPEGQKVDHCARHGEKLLLFCQEDGKVICWLCERSQEHRGHHTFLTEEVAREYQVKLQAALEMLRQKQQEAEELEADIREEKASWKTQIQYDKTNVLADFEQLRDILDWEESNELQNLEKEEEDILKSLTNSETEMVQQTQSLRELISDLEHRLQGSVMELLQGVDGVIKRTENVTLKKPETFPKNQRRVFRAPDLKGMLEVFRELTDVRRYWVDVTVAPNNISCAVISEDKRQVSSPKPQIIYGARGTRYQTFVNFNRYQTFVNFNYCTGILGSQSITSGKHYWEVDVSKKTAWILGVCAGFQPDAMCNIEKNENYQPKYGYWVIGLEEGVKCSAFQDSSFHTPSVPFIVPLSVIICPDRVGVFLDYEACTVSFFNITNHGFLIYKFSHCSFSQPVFPYLNPRKCGVPMTLCSPSS [human TRIM5α, 9-codon duplication at 335]", "enrichment": "0.492 ± 0.69"},
      {"sequence": "MASGILVNVKEEVTCPICLELLTQPLSLDCGHSFCQACLTANHKKSMLDKGESSCPVCRISYQPENIRPNRHVANIVEKLREVKLSPEGQKVDHCARHGEKLLLFCQEDGKVICWLCERSQEHRGHHTFLTEEVAREYQVKLQAALEMLRQKQQEAEELEADIREEKASWKTQIQYDKTNVLADFEQLRDILDWEESNELQNLEKEEEDILKSLTNSETEMVQQTQSLRELISDLEHRLQGSVMELLQGVDGVIKRTENVTLKKPETFPKNQRRVFRAPDLKGMLEVFRELTDVRRYWVDVTVAPNNISCAVISEDKRQVSSPKPQIIYGARGRYQTFVNFNYCTGILGSQSITSGKHYWEVDVSKKTAWILGVCAGFQPDAMCNIEKNENYQPKYGYWVIGLEEGVKCSAFQDSSFHTPSVPFIVPLSVIICPDRVGVFLDYEACTVSFFNITNHGFLIYKFSHCSFSQPVFPYLNPRKCGVPMTLCSPSS [human TRIM5α, 1-codon deletion at 334]", "enrichment": "0.349 ± 0.14"},
      {"sequence": "MASGILVNVKEEVTCPICLELLTQPLSLDCGHSFCQACLTANHKKSMLDKGESSCPVCRISYQPENIRPNRHVANIVEKLREVKLSPEGQKVDHCARHGEKLLLFCQEDGKVICWLCERSQEHRGHHTFLTEEVAREYQVKLQAALEMLRQKQQEAEELEADIREEKASWKTQIQYDKTNVLADFEQLRDILDWEESNELQNLEKEEEDILKSLTNSETEMVQQTQSLRELISDLEHRLQGSVMELLQGVDGVIKRTENVTLKKPETFPKNQRRVFRAPDLKGMLEVFRELTDVRRYWVDVTVAPNNISCAVISEDKRQVSSPKPQRYQTFVNFNYCTGILGSQSITSGKHYWEVDVSKKTAWILGVCAGFQPDAMCNIEKNENYQPKYGYWVIGLEEGVKCSAFQDSSFHTPSVPFIVPLSVIICPDRVGVFLDYEACTVSFFNITNHGFLIYKFSHCSFSQPVFPYLNPRKCGVPMTLCSPSS [human TRIM5α, 8-codon deletion at 327]", "enrichment": "1.19 ± 0.59"},
      {"sequence": "MASGILVNVKEEVTCPICLELLTQPLSLDCGHSFCQACLTANHKKSMLDKGESSCPVCRISYQPENIRPNRHVANIVEKLREVKLSPEGQKVDHCARHGEKLLLFCQEDGKVICWLCERSQEHRGHHTFLTEEVAREYQVKLQAALEMLRQKQQEAEELEADIREEKASWKTQIQYDKTNVLADFEQLRDILDWEESNELQNLEKEEEDILKSLTNSETEMVQQTQSLRELISDLEHRLQGSVMELLQGVDGVIKRTENVTLKKPETFPKNQRRVFRAPDLKGMLEVFRELTDVRRYWVDVTVAPNNISCAVISEDKRQVSSPKPQIIYGARGTRQTFVNFNYCTGILGSQSITSGKHYWEVDVSKKTAWILGVCAGFQPDAMCNIEKNENYQPKYGYWVIGLEEGVKCSAFQDSSFHTPSVPFIVPLSVIICPDRVGVFLDYEACTVSFFNITNHGFLIYKFSHCSFSQPVFPYLNPRKCGVPMTLCSPSS [human TRIM5α, 1-codon deletion at 336]", "enrichment": "0.463 ± 0.21"}
    ]}
  ]
}
